Consider 83 variants from the RNAGym collection of RNA variant scans (doi:10.1093/nar/gkz1192).

The source gives no read counts; variants with many changes may rest on few reads.

B1: CPEB3 Ribozyme (parent)
chain: UAACAGGGGGCCACAGCAGAAGCGUUCACGUCGCAGCCCCUGUCAGAUUCUGGUGAAUCUGCGAAUUCUGCUGUAUAUCUC

Variants of B1 are the subject of this series. Nature of the series: self-cleavage, relative activity (ratio to wild type); higher = more cleavage; in vitro, sequencing. The method, boiled down: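 For each CPEB3 ribozyme variant, relative activity is its cleaved/total read fraction divided by the unmutated ribozyme's. Barcoded error-prone PCR libraries were transcribed by T7 RNA polymerase (5 hours, 37°C) and held in DNase I for 15 min before an EDTA stop, with cleavage occurring throughout. Template-switching reverse transcription and Illumina sequencing were used to read the RNAs. A 5-read minimum applied, and results are the mean of three batches.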
Turning to A20U U43C U51C U60A U74C, the self-cleavage turned out to be 0.17. With A20U A28U A64U U67A G73A U74C A75G, the self-cleavage was 0.15. Next, A20U C23G A28U A56U: 0.16; A21G A35C U60A A64G: 0.1.

With A21C A65G A77G, the self-cleavage amounted to 0.15.

A21G U26A A28U U58A U69C: the self-cleavage was 0.11. Next, A20U C32A U41C A45G A75U: 0.08.

Consider A20U U60C A65G, for which the self-cleavage was determined as 0.14. For the variant A21C U26A G36U U41C A77G U78C, the self-cleavage was determined as 0.09.

For the variant A20U U43C U48C G55C, the self-cleavage stood at 0.13. The same measure for A20U U25C C32A A47U U72C U78A: 0.11; for A21G U26C A47G U72C A77C: 0.04. The same measure for A20U U25C C40U A47U A64U: 0.15; for A21G A28G A45G: 0.49. The same measure for A21G C40G A47U: 0.26; for A21G G24U U31C U54C: 0.06. On to A20U C38U U58G, for which the self-cleavage stood at 0.05. On to A20U A57G C62U A75G, for which the self-cleavage is 0.12. For the variant A20U U25C A45U U54C U80C, the self-cleavage is 0.15. Regarding A20U G30U C32U A47C U51G, the self-cleavage worked out at 0.03. Consider A21G G42A U60C, for which the self-cleavage came out at 0.19. Take A21G C44G U48C G63A: the self-cleavage worked out at 0.18. As to A21G U25C U54C C59U U72C, the self-cleavage was 0.1. On to A20U U31C A45U, for which the self-cleavage was 0.24. The same measure for A20U U48A U60C: 0.15; for A20U U31C A35U U51A U80C: 0.48; for A20U A64U A77G: 0.13.

As to A21G U26A A28G U51C, the self-cleavage was found to be 0.05.

As to A21G A28G A64G, the self-cleavage turned out to be 0.2. For A21G C39G U49C U51C U60G, the self-cleavage worked out at 0.08. The same measure for A21G C34U A47G: 0.24; for A21G U26C U78C: 0.36.

Consider A20U C34A U43C U60A A75G, for which the self-cleavage came out at 0.03. The same measure for A21G A28C U31C A45U: 0.19; for A21G G42A A45G U66A: 0.34; for A20U U48C U78C: 0.12. Take A20U A56G G70A: the self-cleavage was 0.14. The same measure for A20U A28U U41C U72A: 0.32; for A20U C37U U49A U69C: 0.06; for A21G A35G A47G: 1.14.

With A21G A45C A47G G52C U69A U78A, the self-cleavage was determined as 0.16. Next, A21G A28U U48C U60C: 0.08; A21G A45G A56G U74A: 0.23. Regarding A21G A45G A64G U72C U78C, the self-cleavage is 0.13. For the variant A21G U31G U74C, the self-cleavage came out at 0.61.

As to A21G G24U A28U U43A U60C, the self-cleavage worked out at 0.11.

A21G C23U C50A A75G U78C: the self-cleavage amounted to 0.15. Take A20U U48C U69C U80A: the self-cleavage turned out to be 0.17. Next, A21G U41A U58C: 0.29; A21G G52U C62U U80C: 0.19. Next, A20U C29U U66A A75U: 0.12; A21G U31C U49A A77G: 0.07; A20U G61U A65G U66C U69A: 0.47.

A20U U26G U43C U48C A64G U72C: the self-cleavage worked out at 0.27.

Consider A21G U31C G33A U41A, for which the self-cleavage was determined as 0.21.

For the variant A21G U26C U49C A75G U80C, the self-cleavage came out at 0.04. A21G A28G U41A U43C U72G: the self-cleavage amounted to 0.32. The same measure for A21G C23A U31C U41A A64G G70C: 0.05; for A20U U51A A57G U69C: 0.11; for A20U U43A A45G A56G U72C: 0.17. Next, A21G A28U C44U A47G G53C G61C U69A: 0.02. Next, A20U U25C G61A A64G: 0.12; A20U A35G U41G A77U: 0.07; A20U U26C A35G U48C A64G U66G A75G: 0. A21G U25A U48C U69A U80A: the self-cleavage is 0.05.

With A21G C23A A45G U48C, the self-cleavage came to 0.41.

For the variant A21G U41C U60C, the self-cleavage is 0.36. Regarding A20U U25C A56G, the self-cleavage was 0.34. The same measure for A20U U31C U76C: 0.35; for A21G A45C U54A U60C U74C: 0.07; for A20U C40A U67C: 0.06. The same measure for A21G A28G A45U U48C G63U: 0.53; for A21G U25C U26C A28U U43C U72A: 0.19.

A20U U51C U60C: the self-cleavage was 0.21. Turning to A21G A28G U80C, the self-cleavage amounted to 0.42.

Regarding A21G A28G U49A U60G, the self-cleavage was found to be 0.22. Next, A21G A35C A56U U72G: 0.3; A20U G22C C40U U58C U76C U78C: 0.05; A20U A35G U72C: 0.9. The same measure for A20U U25A U43C G63C: 0.21; for A21G A35G A45G: 1.11. Next, A21G G30U A45U A56G: 0.09.

Turning to A21G U25A A45C U74C, the self-cleavage is 0.27.
